PubChem BioAssay AID493208 (National Center for Advancing Translational Sciences (NCATS), 2011)
Screen size: about 44,000 compounds; about 340 (0.77%) were called active. Another 5% or so got no clear call; they are omitted. Calls come from the whole dose curve; as a rule, active = well fitted inhibition curve with a large enough effect; inconclusive = small, poorly fitted or top-dose-only effect; inactive = flat fitted curve, though single readings scatter. This is one part of the list.

Experiment: Acumen qHTS Assay for Inhibitors of the mTORC1 Signaling Pathway in MEF (Tsc2-/-, p53-/-) Cells: Sytravon;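 note: plate controls were DMSO for no effect and rapamycin for full effect; nearly all actives have a fitted effect of over 50% in size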
Settings: phospho-rpS6 immunofluorescence/PI, 24 h; series mostly up to 38.3 µM; activity change, negative = inhibition: at the top concentration
Summary of the method: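 Tsc2-/-, p53-/- MEFs (empty-vector stable line) in DMEM + 10% FBS were treated with compounds 24 h at 37 degree Celsius, fixed, and immunostained for phospho-rpS6 (Alexa-488) with propidium iodide counterstain. Laser-scanning cytometry gave % positive cells, normalized against 7.5 nM rapamycin and DMSO.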

Row | Structure (SMILES) | activity change, negative = inhibition
1 | O=c1c2oc3ccccc3c2n(Cc2cccc(C(F)(F)F)c2)c(=O)n1Cc1ccc2c(c1)OCO2 | inactive: -4.48%
2 | CCOc1ccccc1N(C)C(=O)NCc1noc2ccccc12 | inactive: -15.4%
3 | CCOc1ccccc1NS(=O)(=O)c1ccc2oc(=O)c3ncn(C)c3c2c1 | inactive: -1.33%
4 | Cc1ccc(-n2nc(C)c3nc(CCC(=O)Nc4ccc(F)cc4)c(=O)n(C)c32)cc1 | inactive: 12%
5 | CCn1cc(C(=O)NC(C)c2ccccc2)c(=O)c2cc(S(=O)(=O)N3CCc4ccccc4C3)ccc21 (stereo not drawn) | inactive: 10.9%
6 | Cc1ccc(NC(=O)Cn2cc(S(=O)(=O)N3CCCC3)c(S(=O)(=O)N3CCCC3)c2)c(C)c1 | inactive: -1.29%
7 | O=C(NCCc1ccc(Cl)cc1)c1cccn1-c1nnc(N2CCCC2)s1 | inactive: 7.64%
8 | COc1ccc(C(=O)c2cn(CC(=O)Nc3ccc4c(c3)OCO4)c3ccc(OC)cc3c2=O)cc1 | inactive: -6.08%
9 | CCCn1cc(S(=O)(=O)c2ccccc2)c(=O)c2cc(F)c(N3CCCC3)cc21 | inactive: -2.45%
10 | COc1ccc(C(=O)N2CCC(C(=O)Nc3ccccc3Cl)CC2)cc1 | inactive: -2.83%
11 | CCc1ccccc1NC(=O)c1cc(S(=O)(=O)NC2CCCC2)ccc1F | inactive: 5.28%
12 | CCCn1ccc2c(OCC(=O)Nc3ccc(F)cc3F)cccc2c1=O | inactive: 4.45%
13 | Cc1cccc(OCC(=O)Nc2ccc3c(c2)N(C)C(=O)c2ccccc2S3)c1 | inactive: -12.8%
14 | COc1ccc(-n2nc(C(=O)N3CCN(c4cccc(C)c4)C(C)C3)c3c4ccccc4n(C)c3c2=O)cc1 (stereo not drawn) | inactive: -1.14%
15 | Cc1ccc(C(=O)N/C(=C\c2cn(S(=O)(=O)N(C)C)c3ccccc23)C(=O)NCCCn2ccnc2)cc1 | inactive: -0.675%
16 | COc1ccc(CN2CCCN(CC(=O)Nc3ccc4c(c3)OCCO4)S2(=O)=O)cc1 | inactive: 0%
17 | Cc1ccc(C(=O)N2CCC(C(N)=O)CC2)cc1NC(=O)c1nsc2ccccc12 | inactive: 5.97%
18 | COc1ccccc1CNC(=O)CCCn1c(=O)c2ccccc2n(Cc2ccc(C)cc2)c1=O | inactive: 0.251%
19 | COc1ccc(N(CC(=O)NCCc2ccc(Cl)cc2)S(=O)(=O)c2c(C)nn(C)c2C)cc1 | inactive: -13.3%
20 | CCOC(=O)C1CCN(C(=O)c2nn(-c3ccc(OC)cc3)c(=O)c3c2c2ccccc2n3C)CC1 | inactive: 0.0987%
21 | Cc1ccc(-c2noc(-c3nnn(CC(=O)Nc4cc(Cl)ccc4C)c3N)n2)cc1 | inactive: -0.266%
22 | CC1CCN(S(=O)(=O)c2cc(C(=O)N3CCN(c4ccccc4F)CC3)n(C)c2)CC1 | inactive: -0.821%
23 | CCC1CN(C(=O)C2CCN(S(=O)(=O)c3c(C)noc3/C=C/c3ccccc3F)CC2)c2cc(C)ccc2O1 (stereo not drawn) | inactive: 0.666%
24 | CCCCn1c(SCC(=O)NCc2ccc(C)cc2)nc2c(sc3ccccc32)c1=O | inactive: -6.13%

Row | Structure (SMILES) | activity change, negative = inhibition
25 | COCCN1CCN(Cc2ccc(C(=O)NC(C)C)cc2)C(=O)C1=O | inactive: 0%
26 | COc1ccc(NC(=O)c2oc3ccccc3c2NC(=O)Cc2cccs2)c(OC)c1 | inactive: -18.1%
27 | COc1ccc(CNC(=O)C(C)n2c(=O)cc(C)c3c(C)nn(-c4ccccc4)c32)cc1 (stereo not drawn) | inactive: -2.92%
28 | CCc1cccc(NC(=O)C2CCN(S(=O)(=O)c3cccc(-c4noc(C)n4)c3)CC2)c1 | inactive: -14.5%
29 | Cc1nc2c(c(C)nn2-c2ccccc2)c(C)c1CCC(=O)NCc1ccccc1 | inactive: 3.74%
30 | CCN1CCN(Cc2c(O)ccc3cc(-c4ccc(OC)cc4)c(=O)oc23)CC1 | inactive: 0%
31 | COc1ccc(C2c3cccn3CCN2S(=O)(=O)c2ccc([N+](=O)[O-])cc2)cc1 (stereo not drawn) | inactive: 0.234%
32 | CC(=O)c1cccc(NC(=O)c2nc(-c3ccccc3)n(-c3ccccc3C)n2)c1 | inactive: 1.93%
33 | Cc1ccn2cc(-c3ccc(C)c(NS(=O)(=O)c4ccc(Cl)cc4)c3)nc2c1 | inactive: -14.1%
34 | Cc1nnc(N2CCCC(C(=O)NCCc3ccccc3)C2)c2nn(-c3ccccc3)c(C)c12 (stereo not drawn) | inactive: -8.36%
35 | Cc1ccc(S(=O)(=O)c2nc(-c3cccc(Cl)c3)oc2NCc2ccccc2)cc1 | inactive: 0.892%
36 | COC(=O)c1cc2oc3ccccc3c2n1CC(=O)Nc1ccc(C)cc1C | inactive: -1.61%
37 | CCOC(=O)Cn1c(=O)oc2cc(S(=O)(=O)N3CCN(c4cc(C)ccc4C)CC3)ccc21 | inactive: 0.299%
38 | COCCCNC(=O)c1ccc2nc(CCc3ccccc3)oc2c1 | inactive: -10.3%
39 | CCOC(=O)c1c(NC(=O)c2ccc(C)c(C)c2)sc2c1CCCCC2 | inactive: -2.78%
40 | CCc1ccc(C(=O)NC2=NC(c3ccccc3F)CC(=O)N2)cc1 (stereo not drawn) | inactive: 0.116%
41 | Cn1cnc(S(=O)(=O)N2CCCC(C(=O)Nc3ccc(OC(F)(F)F)cc3)C2)c1 (stereo not drawn) | inactive: 0%
42 | CCC(=O)N1CCc2cc(S(=O)(=O)NC(C(=O)Nc3cc(OC)cc(OC)c3)C(C)C)ccc21 (stereo not drawn) | inactive: -5.15%
43 | Cc1c(Cl)ccc2sc(N3CCN(C(=O)CS(=O)(=O)c4ccccc4)CC3)nc12 | inactive: -7.82%
44 | CCOc1ccc(OCC)c(NS(=O)(=O)c2ccc3c(c2)CCN3C(=O)C2CCC2)c1 | inactive: 0.109%
45 | O=C(Cc1c(C(=O)O)[nH]c2ccccc12)Nc1cccc(C(F)(F)F)c1 | inactive: -7.08%
46 | CCCN1CCN(CCCNC(=O)c2c(C)nn(-c3ccc(F)cc3)c2-n2cccc2)CC1 | inactive: -14.9%
47 | CCOc1ccc(CNC(=O)Cn2c(=O)c3cccn3c3ccccc32)cc1 | inactive: 0.892%
48 | Cc1ccc(OCC(=O)Nc2ccc(-c3nc4ccccc4o3)cc2)c(C)c1 | inactive: -2.67%

Row | Structure (SMILES) | activity change, negative = inhibition
49 | O=C(Nc1ccccc1Br)N1CCC(CN2CCCC2)CC1 | inactive: -1.28%
50 | CCn1cc2nc(SCc3cccc(C(F)(F)F)c3)n(Cc3ccc(C)cc3)c(=O)c2n1 | inactive: -2.13%
51 | Cc1cc(F)ccc1NC(=O)c1c(C)oc2c1C1=NCCN1C=N2 | inactive: -4.67%
52 | COc1ccc(-c2cc(C(=O)Nc3cnn(Cc4ccc(F)cc4)c3)no2)cc1OC | inactive: -18.9%
53 | CCc1ccccc1NC(=O)CSc1nc2c(c(=O)[nH]1)CN(Cc1ccccc1OC)CC2 | inactive: 3.18%
54 | COc1ccccc1-n1c(=O)n(C)c2c(C(N)=O)nc(-c3cc(OC)c(OC)c(OC)c3)nc21 | inactive: -4.43%
55 | Cc1cc(C)c2c(N)c(C(=O)Nc3ccccc3C(F)(F)F)sc2n1 | inactive: 5.25%
56 | COc1cc2c(cc1NC(=O)C(C)Oc1ccccc1)oc1ccccc12 (stereo not drawn) | inactive: -17.9%
57 | COc1ccc(OC)c(NC(=O)COCc2cc(-c3ccc(F)cc3)on2)c1 | inactive: 4.52%
58 | CCC1CN(C(=O)Nc2cc(Cl)ccc2C(=O)OC)c2ccccc2S1 (stereo not drawn) | inactive: -6.27%
59 | Cc1ccc(N2C(=O)N(Cc3cccc(Cl)c3)c3ccccc3S2(=O)=O)cc1 | inactive: -2.06%
60 | Cc1ccc(C)c(Cn2c(=O)n(CCCC(=O)NCc3ccc4c(c3)OCO4)c(=O)c3sccc32)c1 | inactive: -16.4%
61 | CCCSc1ncc(Cl)c(C(=O)N2CCN(c3ccc(OC)cc3)CC2)n1 | inactive: 6.92%
62 | CN(C(=O)c1nn(C)c2c1CS(=O)(=O)c1ccccc1-2)c1cccc(Cl)c1 | inactive: 3.36%
63 | CCOC(=O)c1ccc(NC(=O)c2c(NCc3cccc(OC)c3OC)sc3c2CCC3)cc1 | inactive: -7.59%
64 | CCC(C)c1ccc(OCC(=O)Nc2ccc(-c3nc4ncccc4o3)cc2)cc1 (stereo not drawn) | inactive: 5.04%
65 | CC(C)Oc1ccc(C(=O)N2CCCCC2CCN2CCCCC2)cc1 (stereo not drawn) | inactive: -5.76%
66 | CCCOc1ccc(CNC(=O)c2cc3ccccn3n2)cc1 | inactive: -5.4%
67 | CCOC(=O)c1sc(N2C(=O)c3oc4ccc(F)cc4c(=O)c3C2c2ccc(O)cc2)nc1C (stereo not drawn) | inactive: -3.14%
68 | Cc1ccc(/C=C/c2onc(C)c2S(=O)(=O)N2CCC(C(=O)N(CCC(C)C)Cc3ccco3)CC2)cc1 | inactive: 1.07%
69 | COc1ccc(N2CCN(CCCNC(=O)c3ccc4nc(N5CCCCC5)sc4c3)CC2)cc1 | inactive: 0.321%
70 | CCc1cccc(NC(=O)CCNS(=O)(=O)c2ccc3c(c2)CCN3C(C)=O)c1 | inactive: 0.279%
71 | COc1ccccc1NC(=O)Cn1c(=O)n(-c2ccc(C)cc2)c(=O)c2c1cnn2C | inactive: 3.79%
72 | CCOc1ccc(NC(=O)c2oc3ccccc3c2NC(=O)c2cc3ccccc3o2)cc1 | inactive: -0.452%

Row | Structure (SMILES) | activity change, negative = inhibition
73 | Cc1ccc(N2C(=O)CSC23C(=O)N(CC(=O)Nc2ccccc2F)c2ccccc23)cc1C (stereo not drawn) | inactive: -1.19%
74 | Cc1ccc(CNC(=O)c2ccc(CS(=O)(=O)c3ccccc3C)o2)cc1 | inactive: -1.03%
75 | CCOC(=O)CSc1nc2cc3c(cc2c(=O)n1CCCCCC(=O)NCc1ccc(OC)cc1)OCO3 | inactive: -0.859%
76 | CN(C)c1ccc(CNC(=O)c2ccc3nc(CCc4ccccc4)oc3c2)cc1 | inactive: -7.08%
77 | COc1ccc(-n2nc(C(=O)Nc3cccc(Cl)c3)c3c4ccccc4n(C)c3c2=O)cc1Cl | inactive: -0.999%
78 | O=C(Nc1ccc(Br)cc1)c1cccc(S(=O)(=O)N2CCc3ccccc32)c1 | inactive: 9.23%
79 | CC(C)(C)c1ccc(-c2nnc(-c3ccccc3NC(=O)c3ccc(F)cc3F)o2)cc1 | inactive: -0.623%
80 | CCCCCCC1CCC(C(=O)NC(C(=O)O)C(C)C)CC1 (stereo not drawn) | inactive: -2.08%
81 | O=C(CSc1oc(-c2ccco2)nc1S(=O)(=O)c1ccc(Cl)cc1)Nc1ccc(F)cc1 | inactive: 6.26%
82 | CC(C)c1ccc(NC(=O)CSC2=Nc3ccccc3C3=NC(CC(=O)NC4CCCCC4)C(=O)N23)cc1 (stereo not drawn) | inactive: -1.56%
83 | COc1ccc2c(Sc3ccc(Cl)cc3)c(C(=O)N3CCCCC3)[nH]c2c1 | inactive: -10.1%
84 | COc1ccc(-c2nc3ccccc3n3c(-c4ccccc4)c4c(=O)n(C)c(=O)n(C)c4c23)cc1 | inactive: -8.62%
85 | Cc1ccc(CNC(=O)CSc2c(C(C)C)cnc3c2c(=O)n(C)c(=O)n3C)cc1 | inactive: -0.603%
86 | O=C(CSCc1ccc(F)cc1)NCc1ccc(F)cc1 | inactive: -2.25%
87 | Cc1cccc(CC(=O)N2CC(=O)Nc3ccc(F)cc3C2c2ccccc2)c1 (stereo not drawn) | inactive: 4.29%
88 | COc1cc(NC(=O)CCCc2nnc3n(C)c(=O)c4sccc4n23)cc(OC)c1OC | inactive: 2.45%
89 | CCc1ccccc1NC(=O)Nc1ccc2snnc2c1 | inactive: 1.1%
90 | CCC(CC)C(=O)N1CCc2cc(OC)c(OC)cc2C1COc1ccc(F)cc1 (stereo not drawn) | inactive: 11.1%
91 | Cc1cccc(-n2ncc(C(=O)NCc3ccc4c(c3)OCO4)c2C2CCN(C(=O)OC(C)(C)C)CC2)c1 | inactive: 2.65%
92 | O=C(CSc1nc(Nc2ccc(F)c(F)c2)c2ccccc2n1)c1ccc(Cl)cc1 | inactive: 0.59%
93 | CC(C)(C)OC(=O)N1CCC(c2c(C(=O)NCCN3CCOCC3)cnn2-c2ccc(F)cc2F)CC1 | inactive: -8.12%
